Data published in the supplement of paper PMC10441789.
The list shows a part of the results. Antibody binding of pooled human sera (four to six donors per pool; dilution not stated) to peptides of the Trypanosoma cruzi antigen TSSA on microarrays. Quantile-normalised fluorescence in arbitrary units, mean of duplicate arrays; higher = more binding. No active / inactive call. The uninfected pools are read here as the healthy donors of the same country. The strongest signals lie near the top of the scale (about 60,000).

Legend:
Experiment in all cases: antibody binding signal (normalised fluorescence) (arbitrary fluorescence units); higher = stronger serum antibody binding to peptide
[1] = test system: pooled sera of chronic Chagas disease patients, Bolivia
Description: (§1)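 Microarray of 15-residue peptides over residues 30-55 of Trypanosoma cruzi TSSAII, each with 1 to 10 substitutions at naturally variable positions, probed with one serum pool per country.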

[2] = test system: pooled sera of chronic Chagas disease patients, Brazil
Description: as §1

[3] = test system: pooled sera of chronic Chagas disease patients, Colombia
Description: as §1

[4] = test system: pooled sera of chronic Chagas disease patients, Mexico
Description: as §1

[5] = test system: pooled sera of chronic Chagas disease patients, USA
Description: as §1

[6] = test system: pooled sera of uninfected people, Argentina
Description: as §1

[7] = test system: pooled sera of uninfected people, Bolivia
Description: as §1

[8] = test system: pooled sera of uninfected people, Brazil
Description: as §1

[9] = test system: pooled sera of uninfected people, Colombia
Description: as §1

[10] = test system: pooled sera of uninfected people, Mexico
Description: as §1

[11] = test system: pooled sera of uninfected people, USA
Description: as §1

Sequence	antibody binding signal [1]	antibody binding signal [2]	antibody binding signal [3]	antibody binding signal [4]	antibody binding signal [5]	antibody binding signal [6]	antibody binding signal [7]	antibody binding signal [8]	antibody binding signal [9]	antibody binding signal [10]	antibody binding signal [11]
GKENKPATGGTPSQS	464	7350	3060	4440	10600	806	283	192	113	220	124
SGKDKKTAAGGTPSQ	201	289	4850	678	1840	114	83.9	244	178	118	110
TDKKPATGGAPSPSG	1010	1950	2950	952	1850	299	1270	166	227	144	198
DKKTAAGGTPSQPGA	280	426	9150	400	1610	354	105	1040	314	688	194
KKAAAGGAPSPSGAS	234	335	2980	372	415	206	107	121	121	94.4	227
PPSGKEKKPAAGETP	664	2640	1450	9890	2830	531	830	131	365	85.1	329
DNKPATGEAPSPSGA	48200	48600	275	172	41800	935	504	639	141	212	122
TPPSGKEKKTATGGT	620	647	686	20300	1670	349	291	427	151	130	155
SGKDNKPATGGTPSQ	324	9380	1080	865	1290	409	905	192	403	192	132
STPPSGKDNKTAAGE	25200	10400	990	32200	4000	356	584	241	308	126	125
KEKKPAAGETPSQSG	216	882	123	166	408	113	97.4	114	197	81.1	342
TPPSGTENKAAAGET	40400	44100	178	2390	17800	2120	440	254	531	477	373
KDKKAAAGGAPSQSG	183	164	1490	633	213	128	76	125	86.3	79.7	108
KENKTATGGTPSQPG	260	369	1350	289	573	473	106	177	157	690	144
PSGTDKKPAAGGAPS	678	24100	14100	3680	2240	219	476	219	237	1240	306
KPATGETPSQSGASS	29400	32600	156	305	22300	359	660	324	176	1830	209
TDNKTAAGGTPSQPG	518	1020	4660	299	1470	413	338	1190	303	2140	155
SSTPPSGTDKKAAAG	4880	36000	7230	29900	5880	869	123	162	206	1410	236
DNKTAAGEAPSPSGA	366	1080	252	185	6890	160	189	209	193	243	125
TPPSGKENKAATGGT	897	1810	571	2430	3020	2930	1250	877	584	179	390
TPPSGTDNKPAAGGA	42500	49100	5810	16600	22900	3000	862	883	485	1250	578
DNKPAAGGAPSQPGA	1560	22200	1520	311	486	262	388	512	300	490	244
GKENKTAAGEAPSQS	4210	15400	13600	11200	19100	520	156	148	137	156	165
TPPSGTEKKAAAGGA	5100	25400	3290	13000	2370	1580	297	825	156	206	291
KDNKPAAGETPSQSG	201	18000	301	235	2220	465	485	211	300	512	94
ENKTATGEAPSQPGA	39400	42100	204	339	22100	191	124	284	211	257	142
PPSGKDKKPAAGGAP	847	725	1690	35600	1390	217	564	131	258	80.2	144

Sequence	antibody binding signal [1]	antibody binding signal [2]	antibody binding signal [3]	antibody binding signal [4]	antibody binding signal [5]	antibody binding signal [6]	antibody binding signal [7]	antibody binding signal [8]	antibody binding signal [9]	antibody binding signal [10]	antibody binding signal [11]
GTEKKAAAGGAPSQS	184	162	3860	570	534	140	358	251	92.7	86.3	117
KKPAAGETPSPPGAS	256	2450	176	181	516	373	364	109	166	84.3	552
KAAAGGAPSQSGASS	183	355	3390	594	250	192	142	134	92.8	371	155
KPATGEAPSPSGASS	41700	46900	176	3290	44200	842	753	319	170	175	274
GKENKPAAGGAPSPP	256	4780	2800	2670	7010	568	170	115	127	139	129
TENKPAAGGAPSQSG	1150	4900	1070	926	681	265	509	258	138	256	221
TDKKAATGGTPSQPG	659	966	2150	669	1080	442	118	905	1100	642	141
NKAATGGTPSPPGAS	694	2090	340	302	287	628	1140	570	731	162	1820
GKDNKTAAGGAPSQS	187	241	3190	581	478	147	128	137	180	84.6	136
GTEKKPATGGTPSQS	302	736	1390	2180	1110	302	966	1320	167	312	1140
KENKAATGEAPSPPG	20500	36900	218	194	25900	179	224	167	135	89.8	144
GTENKAAAGGTPSPP	547	660	3020	882	1490	150	407	1400	522	197	101
GTEKKAAAGGTPSPS	208	279	4760	555	1900	114	328	1350	201	83.5	131
GKEKKPATGGTPSQP	825	595	1790	1710	2100	203	124	623	99.3	349	265
GTEKKPAAGGTPSPS	199	745	5610	1390	1920	142	969	1910	218	407	1570
TISTPPSGKDNKPAA	6970	23600	556	20800	13500	1840	1410	407	234	179	434
KKPATGEAPSPSGAS	15900	40500	185	262	30000	953	773	162	188	118	360
PPSGTDNKPAAGEAP	40400	45800	3400	2480	22500	843	678	623	412	672	353
KDNKTATGGAPSPSG	233	247	1760	232	356	342	130	153	186	114	138
GTDKKTAAGGTPSPP	193	180	9150	411	2040	122	160	600	293	235	119
KDNKTAAGEAPSQPG	6820	34900	1980	240	6040	479	220	184	255	94.6	161
PSGTDKKPAAGETPS	2960	32800	13500	3330	2680	189	735	537	1250	4080	289
TENKTAAGGAPSPPG	561	300	4890	672	757	396	172	526	191	382	200
STPPSGTEKKPATGE	46500	43700	508	38800	18100	1050	808	1050	223	238	199
KENKAATGETPSQSG	769	24600	223	227	12400	139	208	129	145	194	217
KENKAATGGAPSQPG	361	17000	247	270	2920	232	96	107	98.2	93.3	179
TPPSGKDNKTATGEA	3600	2200	1530	15000	2650	203	386	178	272	118	128
